Source: the supplement of paper PMC4723716
Several values for one entry are separate records, joined by “and”; a condition that tells them apart may be missing. Identical values can stand only once. ± gives the uncertainty stated by the source. In all, about 9,900 compounds were measured (“viability index relative to DMSO control”: median about 1, lowest 2% from about 0.85 on). The list shows a part of the results.

Test system: Plasmodium falciparum NF54 stage V gametocytes
Experiment: viability index relative to DMSO control (fraction); higher = less gametocyte killing
Settings: 2.5 µM, incubation time: 72 h
Method in brief: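 P. falciparum NF54 stage V gametocytes in serum-free screening medium (0.75% gametocytemia, 1.25% hematocrit, 10 µl) were incubated with compound at 2.5 µM in 1,536-well plates for 72 hr at 37°C under low oxygen. Then 3 µl of 2.5 µM MitoTracker Red CMXRos plus 0.13% saponin was added for one to two hours. One field per well was imaged, 20–70 µm2 red particles were counted, and the viability index was the count divided by the plate mean of DMSO wells.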

[1] = library set: Broad Institute DOS

SMILES	viability index [1]	viability index (library set: Broad Institute Blood Stage)
C/C=C/c1ccc([C@H]2[C@@H](CO)N(C(=O)C3CCC3)C23CN(C(=O)NC(C)C)C3)cc1	1.08 ± 0.055	
N#C[C@@H]1[C@H](c2ccccc2/C=C/c2ccccc2)[C@H](CO)N1S(=O)(=O)c1cccc(F)c1	1.11 ± 0.11	
COc1cccc(-c2ccc3c(c2)O[C@@H](CN(C)Cc2cccnc2)[C@H](C)CN([C@@H](C)CO)S3(=O)=O)c1	0.8736 ± 0.0086	
O=C1CN(S(=O)(=O)Cc2ccccc2)C[C@@H]2[C@@H](c3ccc(C#Cc4ccccc4)cc3)[C@H](CO)N12	1.05 ± 0.013	
C[C@@H]1CN([C@@H](C)CO)C(=O)c2cc(NC(=O)Cn3cnnn3)ccc2O[C@H]1CN(C)Cc1ccc(C(=O)Nc2ccccc2N)cc1	1.002 ± 0.0028	
CCCN1C[C@H](C)[C@H](OC)CN(C)C(=O)c2cc(NC(=O)C3CCC3)ccc2OC[C@@H]1C	1.11 ± 0.018	
COc1ccc(S(=O)(=O)N(C)C[C@@H]2OCCCC[C@H](C)Oc3ccc(NC(=O)Cc4ccccc4)cc3C(=O)N([C@@H](C)CO)C[C@H]2C)cc1	0.911 ± 0.17	
C[C@@H]1CCCCO[C@@H](CN(C)C(=O)NC2CCCCC2)[C@@H](C)CN([C@H](C)CO)C(=O)c2cc(N(C)C)ccc2O1	1.07 ± 0.02	
Cc1ccc(S(=O)(=O)N2C[C@H](O)COC[C@@H]3O[C@@H](CC(=O)NCc4ccc5c(c4)OCO5)CC[C@H]32)cc1	1.02 ± 0.049	
COc1ccc2c3c([C@H](CO)N(C[C@]33CN(C)C3)C(=O)Cc3ccccc3)n(C)c2c1	0.984 ± 0.081	
O=C(C[C@H]1CC[C@H]2[C@@H](COC[C@H](O)CN2Cc2ccc(Oc3ccccc3)cc2)O1)N1CCN(c2ccccc2)CC1	1.06 ± 0.071	
C[C@H]1CN([C@@H](C)CO)C(=O)c2ccccc2-c2ccccc2CO[C@H]1CN(C)S(=O)(=O)c1cccs1	1.03 ± 0.15	
Cc1ccc(S(=O)(=O)N(C)C[C@H]2OCCCC[C@@H](C)Oc3ccc(NC(=O)c4ccncc4)cc3C(=O)N([C@@H](C)CO)C[C@@H]2C)cc1	1.05 ± 0.14	
CN1c2ccc(Br)cc2[C@@H]2[C@@H](CCN2C(=O)c2ccc(F)cc2)[C@H]1CO	1.08 ± 0.091	
COc1cccc(NC(=O)N2[C@H](CO)[C@@H](c3ccccc3)[C@H]2CNCC(C)C)c1	0.952 ± 0.021	
O=C(Cc1ccccc1)N1CC(=O)N2[C@H](CO)[C@H](c3ccc(C#Cc4ccccc4)cc3)[C@H]2C1		0.728 ± 0.097
CN1C(=O)c2cc(NC(=O)c3cccc(F)c3)ccc2OC[C@@H]2O[C@@H](CC(=O)NCC3CCCCC3)CC[C@H]21	1.09 and 1.18	
CN(C)C(=O)C[C@@H]1C[C@H]2c3cc(NC(=O)c4cccnc4)ccc3O[C@H]2[C@H](CO)O1	1.0233 ± 0.00094	
COc1ccc(NC(=O)N[C@H]2CC[C@@H](CCNC(=O)CN3CCOCC3)O[C@H]2CO)cc1	0.948 ± 0.034	
C[C@H](CO)N1C[C@H](C)[C@@H](CN(C)Cc2cccc3c2OCCCO3)OCc2ccccc2-c2ccccc2C1=O	1.06 ± 0.093	
N#C[C@H]1[C@H](c2ccccc2)[C@H](CO)N1C(=O)Nc1cccc(F)c1	1.1 ± 0.032	
CC(C)NC(=O)N1[C@H](CO)[C@@H](c2ccccc2-c2ccc(F)cc2)[C@@H]1C#N	1.15 ± 0.11	
COc1ccc2c3c([nH]c2c1)[C@H](CO)N(C[C@]31CCN(CC1)C(=O)Nc1ccc(F)cc1F)C(C)=O	0.748 ± 0.035	
CNC[C@H]1Oc2c(NS(=O)(=O)c3ccc(Cl)cc3)cccc2C(=O)N([C@H](C)CO)C[C@H]1C	1.02 ± 0.049	

SMILES	viability index [1]	viability index (library set: Broad Institute Blood Stage)
C[C@@H](O)C#Cc1ccc([C@H]2[C@H](CO)N3CCCCN(C(=O)c4ccc5c(c4)OCO5)C[C@@H]23)cc1	1.03 ± 0.014	
O=C(C[C@@H]1C=C[C@H](NS(=O)(=O)c2ccccc2)[C@@H](CO)O1)NCCN1CCCCC1	1.159 ± 0.0091	
COc1ccc(CN2[C@H](CO)[C@H]3c4ccccc4N(C(=O)NC(C)C)C[C@H]32)cc1	1.03 ± 0.057	
CCCNC(=O)N1CC[C@@]2(CC1)CN([C@H](CO)c1c2c2ccc(OC)cc2n1C)C(=O)CC1CC1	1.048 ± 0.0064	
CCCN1C[C@@H](C)[C@H](OC)CN(C)C(=O)c2cc(NS(=O)(=O)c3ccccc3)ccc2OC[C@@H]1C	0.929 ± 0.033	
CCCNC(=O)N1CC2(C1)[C@@H](c1ccccc1)[C@@H](CO)N2C(=O)c1cccnc1	1.06 ± 0.044	
COc1ccc(-c2cn(CC[C@H]3CC[C@@H](NC(=O)c4cnccn4)[C@H](CO)O3)nn2)cc1	1.11 ± 0.084	
C[C@@H](O)C#Cc1ccc([C@@H]2[C@H]3CN(C(=O)c4ccc5c(c4)OCO5)CCCCN3[C@H]2CO)cc1	1.06 ± 0.14	
C[C@@H]1CC(=O)NCC/C=C\C[C@@H](c2ccc3c(c2)OCO3)NC1=O	1 ± 0.047	
C/C=C/c1ccc([C@H]2[C@H]3CN(C(=O)Nc4cccc(OC)c4)CC(=O)N3[C@H]2CO)cc1	1.09 ± 0.061	
COc1ccc(-c2ccccc2[C@@H]2[C@@H](C#N)N(C(=O)NC3CCCCC3)[C@H]2CO)cc1	1.01 ± 0.079	
COc1ccccc1CN1[C@@H](CO)[C@@H]2c3ccccc3N(C(=O)C3CCOCC3)C[C@@H]21	1.07 ± 0.1	
CS(=O)(=O)N1[C@H](CO)[C@H](c2ccc(-c3ccccc3F)cc2)[C@@H]1C#N	1.11 ± 0.028	
O=C(CCN1CCCCC1)N[C@@H]1CC[C@@H](CCn2cc(-c3cccc(F)c3)nn2)O[C@H]1CO	1.04 ± 0.15	
CN(C)CC(=O)N1[C@H](CO)[C@@H](c2ccccc2-c2ccc(C(=O)N(C)C)cc2)[C@@H]1C#N	1.11 ± 0.096	
C[C@@H]1CCCCO[C@H](CN(C)Cc2ccc(C(F)(F)F)cc2)[C@H](C)CN([C@H](C)CO)C(=O)c2cc(NC(=O)Nc3cccc4ccccc34)ccc2O1	1.06 ± 0.029	
C[C@H](CO)N1C[C@H](C)[C@@H](CN(C)S(=O)(=O)c2ccc(-n3cccn3)cc2)OCc2cn(nn2)CCCC1=O	1.008 ± 0.0025	
COc1ccc2c3c([C@H](CO)N(C)C[C@]33CN(C3)C(=O)C3CCC3)n(C)c2c1	0.991 ± 0.062	
O=C(C[C@@H]1CC[C@@H]2[C@H](COC[C@@H](O)CN2Cc2nccs2)O1)N1CCC(Cc2ccccc2)CC1	1.08 ± 0.048	
CO[C@@H]1CN(C)C(=O)c2ccc(NS(=O)(=O)CC(F)(F)F)cc2OC[C@H](C)N(C(=O)NC(C)C)C[C@@H]1C	1.01 ± 0.024	
N#C[C@H]1[C@H](c2ccccc2C2=CCCCC2)[C@H](CO)N1C(=O)CN1CCOCC1	1.14 ± 0.13	
CN1C(=O)c2cc(NC(=O)Nc3ccccc3Cl)ccc2OC[C@H]2O[C@H](CC(=O)O)CC[C@H]21	1.03 ± 0.093	
CN(C)C(=O)c1cccc(-c2ccc([C@@H]3[C@H]4CN(CC5CCOCC5)CCCCN4[C@H]3CO)cc2)c1	1.02 ± 0.044	
CN1C(=O)c2cc(NC(=O)Nc3ccccc3Cl)ccc2OC[C@@H]2O[C@@H](CC(=O)O)CC[C@H]21	0.986 ± 0.11	

SMILES	viability index [1]	viability index (library set: Broad Institute Blood Stage)
COc1cccc(S(=O)(=O)Nc2ccc3c(c2)C(=O)N(C)[C@H]2CC[C@@H](CC(=O)NCC4CCCCC4)O[C@H]2CO3)c1	1.02 ± 0.13	
O=C(C[C@H]1CC[C@@H]2[C@H](COC[C@@H](O)CN2C(=O)c2cccnc2)O1)NCC1CC1	1.09 ± 0.088	
Fc1cccc(-c2ccc([C@H]3[C@H]4CNC[C@@H]3N4CC3CCOCC3)cc2)c1	1.02 ± 0.0019	
Cc1noc(C)c1NC(=O)N1C[C@@H](O)COC[C@@H]2O[C@@H](CC(=O)N[C@H]3CCN(Cc4ccccc4)C3)CC[C@H]21	1.01 ± 0.017	
C[C@@H]1CCCCO[C@H](CN(C)C(=O)Nc2ccc3c(c2)OCO3)[C@@H](C)CN([C@H](C)CO)C(=O)c2cc(NS(=O)(=O)c3ccc(F)cc3)ccc2O1	1.09 ± 0.091	
COc1ccc(C[C@@H]2CCn3nncc3COC[C@@H](CC(C)C)NC2=O)cc1	0.973 ± 0.026	
COCC#Cc1ccc([C@@H]2[C@H]3CN(C(=O)Nc4ccccc4F)CC(=O)N3[C@H]2CO)cc1	1.07 ± 0.012	
Cc1noc(C)c1S(=O)(=O)N(C)C[C@H]1OCCCC[C@H](C)Oc2ccc(NC(=O)CCC(F)(F)F)cc2C(=O)N([C@@H](C)CO)C[C@H]1C	1.02 ± 0.078	
O=C(c1cnccn1)N1CC(=O)N2[C@@H](CO)[C@H](c3ccc(C#CC4CC4)cc3)[C@@H]2C1	1.02 ± 0.042	
CO[C@H]1CC[C@@H]2CCOc3ccc(C#N)cc3C(=O)N(C)C[C@H](c3ccccc3)CC(=O)N(C)C[C@@H]1O2	1.05 ± 0.084	
Cc1ccccc1-c1ccc2c(c1)O[C@H](CN(C)C(=O)Nc1ccc(C(F)(F)F)cc1)[C@@H](C)CN([C@@H](C)CO)S2(=O)=O	0.878 ± 0.12	
COc1ccc(NC(=O)Nc2cccc3c2O[C@@H](CN(C)Cc2ccc(C(=O)O)cc2)[C@H](C)CN([C@H](C)CO)C3=O)cc1	0.981 ± 0.087	
CO[C@H]1CN(C)C(=O)c2ccc(NC(C)=O)cc2OC[C@H](C)N(Cc2cccc(F)c2)C[C@H]1C	1.08 ± 0.037	
C/C=C/c1ccc([C@H]2[C@@H](CO)N(CC3CC3)C23CN(C(=O)c2ccc4c(c2)OCO4)C3)cc1	1.06 ± 0.014	
CS(=O)(=O)N1[C@@H]2CNC[C@H]1[C@@H]2c1ccc(-c2ccccc2)cc1	1.03 ± 0.056	
O=C(C[C@H]1CC[C@H]2NC[C@H](O)COC[C@@H]2O1)N1CCc2ccccc2C1	0.988 ± 0.084	
CCCNC(=O)C[C@H]1CC[C@H]2[C@@H](COc3ccc(NC(=O)CC)cc3C(=O)N2C)O1	1.06 ± 0.048	
CNC[C@H]1Oc2ccc(NC(=O)NC3CCCCC3)cc2CC(=O)N([C@H](C)CO)C[C@@H]1C	1.09 ± 0.053	
N#C[C@@H]1[C@H](c2ccc(C3=CCCCC3)cc2)[C@H](CO)N1S(=O)(=O)c1ccccc1	1.09 ± 0.018	
COc1ccc(NC(=O)N2C[C@H]3[C@@H](c4ccccc42)[C@H](CO)N3Cc2ccccn2)cc1	0.918 ± 0.049	
Cc1ccc(S(=O)(=O)N[C@@H]2CC[C@@H](CC(=O)NCc3ccncn3)O[C@@H]2CO)cc1	0.948 ± 0.11	
C[C@H](CO)N1C[C@H](C)[C@@H](CN(C)C(=O)Nc2ccc3c(c2)OCCO3)OCc2cnnn2CCCC1=O	1.0445 ± 0.00048	
CCS(=O)(=O)Nc1ccc2c(c1)C(=O)N(C)[C@H]1CC[C@H](CC(=O)NCCCN3CCOCC3)O[C@@H]1CO2	1.03 ± 0.07	
